Out of some 310,000 compounds screened, about 14,000 (4.5%) showed an effect of 50% or more. Effects have a minus sign here. The list shows a part of the results.
molecular target: human ether-à-go-go-related gene (hERG) potassium channel (human, UniProt Q12809); assay: primary screen, population patch clamp on CHO cells stably expressing hERG
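Further: peak tail current of the secondary pulse compared with the same well before compound.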

Sequence of human ether-à-go-go-related gene (hERG) potassium channel (Q12809 whole entry, looked up): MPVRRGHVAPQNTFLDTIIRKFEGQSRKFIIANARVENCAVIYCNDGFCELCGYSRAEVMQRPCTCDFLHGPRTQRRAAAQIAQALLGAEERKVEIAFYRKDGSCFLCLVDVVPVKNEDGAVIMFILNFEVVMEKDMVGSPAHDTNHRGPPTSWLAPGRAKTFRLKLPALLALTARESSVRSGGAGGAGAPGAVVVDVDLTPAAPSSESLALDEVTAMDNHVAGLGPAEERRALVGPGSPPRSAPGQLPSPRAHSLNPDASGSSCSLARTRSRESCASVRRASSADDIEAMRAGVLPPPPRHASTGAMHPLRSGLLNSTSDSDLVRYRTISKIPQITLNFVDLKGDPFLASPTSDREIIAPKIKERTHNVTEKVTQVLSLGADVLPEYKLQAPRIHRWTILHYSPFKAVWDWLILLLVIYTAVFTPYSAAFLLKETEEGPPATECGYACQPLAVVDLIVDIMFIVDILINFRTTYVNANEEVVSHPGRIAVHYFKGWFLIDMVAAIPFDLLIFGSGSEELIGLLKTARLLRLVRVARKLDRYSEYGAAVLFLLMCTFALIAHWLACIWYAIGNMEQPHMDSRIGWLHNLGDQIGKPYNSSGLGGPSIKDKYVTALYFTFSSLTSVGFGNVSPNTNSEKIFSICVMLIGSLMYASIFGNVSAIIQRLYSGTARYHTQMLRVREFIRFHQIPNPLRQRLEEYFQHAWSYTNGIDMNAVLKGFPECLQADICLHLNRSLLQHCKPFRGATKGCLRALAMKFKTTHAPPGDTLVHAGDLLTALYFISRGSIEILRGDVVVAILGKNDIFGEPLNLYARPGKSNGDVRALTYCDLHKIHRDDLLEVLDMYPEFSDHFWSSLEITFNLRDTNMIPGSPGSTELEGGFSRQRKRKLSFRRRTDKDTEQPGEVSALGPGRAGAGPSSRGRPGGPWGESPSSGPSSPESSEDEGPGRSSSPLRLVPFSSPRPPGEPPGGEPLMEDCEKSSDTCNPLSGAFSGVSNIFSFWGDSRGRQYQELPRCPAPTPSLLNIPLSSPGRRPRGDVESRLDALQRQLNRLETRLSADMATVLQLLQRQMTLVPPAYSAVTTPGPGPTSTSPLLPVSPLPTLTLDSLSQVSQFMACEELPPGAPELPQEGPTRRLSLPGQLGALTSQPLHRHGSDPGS

Compared with `O=C(N/C(=C/c1ccc(Br)cc1)c1nc2ccccc2[nH]1)c1ccco1`, `O=C(NC(=S)NCc1cccnc1)c1cc2ccccc2o1` is higher in “hERG current change (%, negative = inhibition) at 10uM” value: 0.607% for the first, 8.71% for the second.

Going from `C/C(=N\O)C(C)(C)NC(=O)Nc1ccc(Cl)cc1` to `CC(=O)Nc1ccc(NC(=O)Nc2ccc(C)c(C)c2)cc1`, the “hERG current change (%, negative = inhibition) at 10uM” value rises from 8.73% to 14.7%.

First: COC(=O)C1CCN(C(=O)Cn2nnc(-c3cccc(F)c3)n2)CC1
Second: O=C(c1ccc(F)cc1)C1CCN(C(=O)c2ccccc2)CC1
The “hERG current change (%, negative = inhibition) at 10uM” value of the first is higher: 13.2% for the first, -9.13% for the second.

Compared with `N#C/C=C/C(=C\Nc1ccc(Cl)cc1)S(=O)(=O)c1ccccc1`, `O=S(=O)(CC(O)COc1ccccc1Cl)c1ccccc1` (stereo not shown) is lower in “hERG current change (%, negative = inhibition) at 10uM” value: 15.5% for the first, 2.95% for the second.

First: CCOC(=O)c1[nH]c(C)c(C(=O)c2cc(F)ccc2F)c1C
Second: COC(=O)CN(c1ccc(C)cc1)S(=O)(=O)c1ccc(F)cc1
The “hERG current change (%, negative = inhibition) at 10uM” value of the first is higher: -10% for the first, -19.9% for the second.

Compared with `COC(=O)[C@]1(C)C[C@H]1[C@H](NP(=O)(c1ccccc1)c1ccccc1)c1ccccc1`, `COc1ccccc1C(=O)NNC(=O)c1ccc(C)cc1` is higher in “hERG current change (%, negative = inhibition) at 10uM” value: -45.6% for the first, 9.24% for the second.

Compared with `CCN1CCN(C(c2cccc(OC)c2)c2sc3nc(C)nn3c2O)CC1` (stereo not shown), `COc1cccc(-c2noc(C3CCCN(C(=O)CC(C)(C)C)C3)n2)c1` (stereo not shown) is lower in “hERG current change (%, negative = inhibition) at 10uM” value: 19.7% for the first, -10.7% for the second.

First: O=C(O)Cn1cc(/C=N/NC(=O)c2cc3cc(Br)ccc3o2)c2ccccc21
Second: O=C(CS(=O)(=O)c1ccccc1)c1cc2ccccc2oc1=O
The “hERG current change (%, negative = inhibition) at 10uM” value of the first is higher: 0.739% for the first, -0.812% for the second.

First: Cc1cc(C)c(S(=O)(=O)N2CCN(C(=O)c3ccc4c(c3)OCO4)CC2)c(C)c1
Second: O=C1OC(c2ccc3c(c2)OCO3)N(C(=O)c2ccc(Cl)c(Cl)c2)c2ccccc21 (stereo not shown)
The “hERG current change (%, negative = inhibition) at 10uM” value of the first is lower: -31.4% for the first, 15.1% for the second.

Compared with `O=S(=O)(Oc1ccccc1C(=S)N1CCOCC1)c1ccc(Cl)cc1`, `COC(=O)c1ccccc1NC(=O)N1CCN(S(=O)(=O)c2ccc(Cl)cc2)CC1` is higher in “hERG current change (%, negative = inhibition) at 10uM” value: 3.56% for the first, 7.58% for the second.

First: CN(C)c1ccc(C2C3=C(CCCC3=O)OC3=C2C(=O)CCC3)cc1
Second: CC1CCCCN1Cc1c(O)ccc2c(=O)c(-c3ccc(Cl)cc3)coc12 (stereo not shown)
The “hERG current change (%, negative = inhibition) at 10uM” value of the first is higher: 17% for the first, -69.1% for the second.

Going from `CCCCN(C1CCS(=O)(=O)C1)S(=O)(=O)c1ccc(OC)c(OC)c1` (stereo not shown) to `COc1ccc(N(CC(=O)NCc2ccco2)S(=O)(=O)c2ccc(C)cc2)cc1OC`, the “hERG current change (%, negative = inhibition) at 10uM” value rises from -3.24% to 11.6%.

Going from `Cc1ccccc1N1CCN(C2CCCN(C(=O)c3noc4c3CCCC4)C2)CC1` (stereo not shown) to `COc1ccc(C(=O)Nc2nc3c(s2)CCCC3)cc1S(=O)(=O)N1CCCc2ccccc21`, the “hERG current change (%, negative = inhibition) at 10uM” value rises from -63.5% to -2.36%.

Compared with `COCC(C)NS(=O)(=O)c1ccc(C)cc1` (stereo not shown), `Cc1ccc(OCCCC(=O)Nc2ccc(S(N)(=O)=O)cc2)cc1` is lower in “hERG current change (%, negative = inhibition) at 10uM” value: 3.16% for the first, -48.6% for the second.

Going from `OCc1cn(-c2ccccc2)nc1-c1ccc(-c2nn(-c3ccccc3)cc2CO)cc1` to `COc1ccc(-c2cc(C(=O)Nc3c(C)nn(Cc4ccccc4)c3C)no2)cc1`, the “hERG current change (%, negative = inhibition) at 10uM” value falls from 14% to 4.15%.

Compared with `CCCOC(=O)c1ccc(OCC(O)CN2CCN(C(=O)c3ccccc3)CC2)cc1.Cl` (stereo not shown), `CCOC(=O)c1ccc(N2C(=O)CC(N3CCN(Cc4ccccc4)CC3)C2=O)cc1` (stereo not shown) is higher in “hERG current change (%, negative = inhibition) at 10uM” value: -73.7% for the first, -36.6% for the second.

Going from `Cc1cc(=O)oc2cc(OC(C)C(=O)Nc3ccc(N4CCOCC4)cc3)ccc12` (stereo not shown) to `Cc1cc(=O)oc2cc(OC(=O)CCCCCN3C(=O)c4ccccc4C3=O)ccc12`, the “hERG current change (%, negative = inhibition) at 10uM” value rises from -1.31% to 9.57%.

First: CC(C)CCNC(=O)C(=O)NC1CCCC1
Second: O=C(CC1C(=O)NCCN1Cc1cccc(F)c1)NC1CCCCC1 (stereo not shown)
The “hERG current change (%, negative = inhibition) at 10uM” value of the first is higher: 0.31% for the first, -1.05% for the second.

First: CCCOP(=O)(c1ccc(N(C)C)cc1)C(O)c1ccccc1OC (stereo not shown)
Second: CCCCC[C@H]1CN(Cc2ccc(OC)cc2)C(=O)[C@@H]1CC(=O)NCc1ccccc1
The “hERG current change (%, negative = inhibition) at 10uM” value of the first is higher: 13% for the first, -38.6% for the second.

Going from `Cn1cccc1C(=O)OCC(=O)NC1CCS(=O)(=O)C1` (stereo not shown) to `N#CC1(NC(=O)COC(=O)c2cccc(-n3cnnn3)c2)CCCCC1`, the “hERG current change (%, negative = inhibition) at 10uM” value rises from -10.2% to -0.0138%.

Compared with `O=C(NC(=S)Nc1cc(S(=O)(=O)N2CCOCC2)ccc1N1CCOCC1)c1ccco1`, `Cc1ccc(NC(=O)[C@@H]2CCCN2C(=O)c2cccs2)cc1S(=O)(=O)N1CCCCC1` is lower in “hERG current change (%, negative = inhibition) at 10uM” value: -39.4% for the first, -63.9% for the second.

Compared with `Nc1cc(-c2ccc(Cl)cc2)nn1S(=O)(=O)c1cccc2nsnc12`, `CC(=O)N1CC[n+]2c(-c3ccc(Cl)cc3)csc21.[Br-]` is higher in “hERG current change (%, negative = inhibition) at 10uM” value: -5.17% for the first, -1.19% for the second.

Going from `Cc1ccccc1N(CC(=O)NCc1ccc2c(c1)OCO2)C(=O)CCC(=O)Nc1ccccn1` to `O=c1c2ccccc2[nH]c(=S)n1-c1ccc2c(c1)OCO2`, the “hERG current change (%, negative = inhibition) at 10uM” value rises from 2.38% to 13.1%.

First: O=C(COC(=O)CCOc1ccccc1)Nc1ccc(Cl)cn1
Second: C#CCNC(=O)c1ccc(OCc2ccccc2)cc1Cl
The “hERG current change (%, negative = inhibition) at 10uM” value of the first is higher: 2.43% for the first, 2.16% for the second.

First: COc1cc(/C=N/Nc2nc(C)cc(C)n2)ccc1OC(=O)c1ccco1
Second: CCOc1ccc(Oc2c(/C=N/NC(N)=O)c(C)nn2-c2ccccc2)cc1
The “hERG current change (%, negative = inhibition) at 10uM” value of the first is higher: 11.2% for the first, -41.7% for the second.

First: CCCc1cc2c(=O)n(NC(=O)c3nn(C)cc3[N+](=O)[O-])c(C)nc2s1
Second: CCC(C)NC(=O)c1cn(C)c(=O)c2cc(OC)c(OC)cc12 (stereo not shown)
The “hERG current change (%, negative = inhibition) at 10uM” value of the first is higher: 32.2% for the first, -2.86% for the second.

First: Cc1ccc(OCC(O)CN2C(=O)NC(C)(C)C2=O)cc1 (stereo not shown)
Second: CC1(C)OC(=O)C(=CNc2cccc(C(=O)O)c2)C(=O)O1
The “hERG current change (%, negative = inhibition) at 10uM” value of the first is lower: -2.46% for the first, 18.7% for the second.

Compared with `Fc1ccccc1-c1csc(=Nc2cccnc2)n1CC1CCCO1` (stereo not shown), `CCOC(=O)N1CCc2c(sc3c2c(=O)n(Cc2ccccc2)c(=O)n3CC(=O)NCC2CCCO2)C1` (stereo not shown) is lower in “hERG current change (%, negative = inhibition) at 10uM” value: -16.8% for the first, -21.8% for the second.

Compared with `CCOc1ccc(CC2c3cc(OCC)c(OCC)cc3CCN2C(=O)c2cc(OC)c(OC)c(OC)c2)cc1OCC` (stereo not shown), `COc1cc(C2CC(=O)c3cnc(NC(C)=O)nc3C2)cc(OC)c1OC` (stereo not shown) is higher in “hERG current change (%, negative = inhibition) at 10uM” value: -6.21% for the first, -0.439% for the second.

First: CSc1ccccc1NC(=O)C1CCN(S(C)(=O)=O)CC1
Second: O=C(NCc1cccs1)C1CCN(S(=O)(=O)c2cccs2)CC1
The “hERG current change (%, negative = inhibition) at 10uM” value of the first is higher: 12.9% for the first, -32.1% for the second.

First: CCOC(=O)C1CN(S(=O)(=O)c2cccc(C(F)(F)F)c2)c2cc(CC(=O)OC)ccc2O1 (stereo not shown)
Second: O=C(NCc1cccc(C(F)(F)F)c1)C1CC(c2ccccc2[N+](=O)[O-])=NO1 (stereo not shown)
The “hERG current change (%, negative = inhibition) at 10uM” value of the first is higher: -8.37% for the first, -28.9% for the second.

Compared with `CC(NC(=O)/C(=C/c1ccc2c(c1)OCO2)NC(=O)c1cccc([N+](=O)[O-])c1)C(=O)O` (stereo not shown), `Cn1ccnc1/C(=N\NC(=O)c1ccccc1)c1cccc([N+](=O)[O-])c1` is lower in “hERG current change (%, negative = inhibition) at 10uM” value: -0.336% for the first, -68.6% for the second.

Going from `CCC(C(=O)Nc1cnccn1)c1ccccc1` (stereo not shown) to `c1ccc(Nc2ccccn2)cc1`, the “hERG current change (%, negative = inhibition) at 10uM” value rises from -7.15% to 16.1%.

First: CCC1CCc2[nH]nc(C(=O)O)c2C1 (stereo not shown)
Second: Cc1cc(Br)c2nc3c(c(C(=O)O)c2c1)CCCCC3
The “hERG current change (%, negative = inhibition) at 10uM” value of the first is lower: -3.54% for the first, 4.41% for the second.

Going from `Cl.O=C(CN1C2=NCCN2c2ccccc21)c1ccco1` to `CC(=O)N1CCc2cc(S(=O)(=O)N3c4ccccc4CC3C)ccc21` (stereo not shown), the “hERG current change (%, negative = inhibition) at 10uM” value rises from -20.7% to -12.7%.

First: Cn1ncc2c(=O)n(CC(=O)NC34CC5CC(CC(C5)C3)C4)cnc21
Second: COc1ccc(CN(C)C(=O)C23CC4CC(CC(Cl)(C4)C2)C3)c(OC)c1OC
The “hERG current change (%, negative = inhibition) at 10uM” value of the first is higher: 11.2% for the first, -9.63% for the second.

Going from `CC(=O)O.Oc1[nH]c2ccccc2c1N=Nc1ncnc2c1oc1ccccc12` to `Cc1cccc(Cn2cnc3ccccc32)c1`, the “hERG current change (%, negative = inhibition) at 10uM” value falls from 1.1% to -11.3%.

Compared with `CC1CCCC(C)N1/N=C/c1ccccc1Br` (stereo not shown), `CCC1CCCCN1CCNC(=O)CNS(=O)(=O)c1ccc2nc(C)sc2c1` (stereo not shown) is higher in “hERG current change (%, negative = inhibition) at 10uM” value: 8.5% for the first, 10.5% for the second.

First: CCC(=O)NC1OC(CO)C(O)C(O)C1O (stereo not shown)
Second: COc1ccc(/C=N/NC(=O)C2C(C=C(Cl)Cl)C2(C)C)c(OC)c1 (stereo not shown)
The “hERG current change (%, negative = inhibition) at 10uM” value of the first is higher: 30.3% for the first, -10.2% for the second.

First: NC(=O)CSc1nnc2n(N)c(=O)c3ccccc3n12
Second: O=C(Nc1nnc(-c2ccccc2)o1)c1cc(Cl)sc1Cl
The “hERG current change (%, negative = inhibition) at 10uM” value of the first is lower: 8.34% for the first, 12.1% for the second.

Compared with `C#CCOCCOCCOCCNc1nc(N2CCN(C(=O)[C@H]([C@@H](C)CC)n3cc(CCC[NH+]=C(N)N)nn3)CC2)nc(N2CCN(C(=O)[C@H](C)n3cc(CCC[NH+]=C(N)N)nn3)CC2)n1.[Cl-]`, `COc1ccc(CN(CCNC(=O)CCCCC(=O)NCCN(Cc2ccc(OC)cc2)C(C)C)C(C)C)cc1.Cl` is lower in “hERG current change (%, negative = inhibition) at 10uM” value: 9.58% for the first, -5.63% for the second.

First: C=CCOCC(O)Cn1c(N2CCCC2)nc2c1c(=O)n(C)c(=O)n2C (stereo not shown)
Second: Cc1nc2c3cc(Cl)ccc3n(CCN3CCOCC3)c2s1
The “hERG current change (%, negative = inhibition) at 10uM” value of the first is higher: 18.1% for the first, -52.2% for the second.

With `Cc1ccc(N2NC(=O)/C(=C/c3ccc(-c4ccc(Cl)c(C(=O)O)c4)o3)C2=O)cc1C` the “hERG current change (%, negative = inhibition) at 10uM” value was 17.6%.

Source: article PMC4336329 (PLoS ONE, 2015)
